The supplement of paper PMC12067230
This is a noisy data set.

B1: library; a variant is named by its letters at X, in order (parent)
chain: EASNCFAIRHFENKFAVETLICXXXXXXXXX

Variants of: B1
Assay: amyloid nucleation score relative to library mode (yeast Sup35 reporter selection) (log enrichment difference); higher = more amyloid nucleation; sequences are the first 22 residues of the Bri2 peptide extended by up to 12 random residues
Conditions: random library (experiment): 2;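 active = nucleation score significantly above 0 at FDR 0.05; inactive = not significantly above 0 or absent from output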
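Further: [psi-pin-] Saccharomyces cerevisiae expressing SupN fusions, induced by 100 µM Cu2SO4, selected 7 d at 30 °C without adenine and uracil, scored by deep sequencing of output versus input.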

Variant | amyloid nucleation score
EASNCFAIRHFENKFAVETLICVRTISFITL [VRTISFITL] | 2.09
EASNCFAIRHFENKFAVETLICCREVNCIRA [CREVNCIRA] | inactive
EASNCFAIRHFENKFAVETLICFVCYPLRVV [FVCYPLRVV] | inactive
EASNCFAIRHFENKFAVETLICFLWVSFRTM [FLWVSFRTM] | inactive
EASNCFAIRHFENKFAVETLICGWGIGQNGC [GWGIGQNGC] | 7.49
EASNCFAIRHFENKFAVETLICICTRLNQLG [ICTRLNQLG] | 3.37
EASNCFAIRHFENKFAVETLICFQLVLIIIF [FQLVLIIIF] | -0.0488
EASNCFAIRHFENKFAVETLICVDRFWFQFE [VDRFWFQFE] | 2.6
EASNCFAIRHFENKFAVETLICREKNCVLAS [REKNCVLAS] | inactive
EASNCFAIRHFENKFAVETLICKIYILLGAV [KIYILLGAV] | inactive
EASNCFAIRHFENKFAVETLICIELSNICRV [IELSNICRV] | 4.22
EASNCFAIRHFENKFAVETLICFGLRDSTAN [FGLRDSTAN] | 7.33
EASNCFAIRHFENKFAVETLICYVKPNGVIW [YVKPNGVIW] | 1.32
EASNCFAIRHFENKFAVETLICEINSDICFS [EINSDICFS] | inactive
EASNCFAIRHFENKFAVETLICINLCYCRTG [INLCYCRTG] | 4.53
EASNCFAIRHFENKFAVETLICIFVTFGIAI [IFVTFGIAI] | 2.84
EASNCFAIRHFENKFAVETLICWMWFLCPEM [WMWFLCPEM] | 4.2
EASNCFAIRHFENKFAVETLICWYSCLGANR [WYSCLGANR] | 4.04
EASNCFAIRHFENKFAVETLICHYMSHIDFW [HYMSHIDFW] | inactive
EASNCFAIRHFENKFAVETLICVDVWSDIIW [VDVWSDIIW] | 4.72
EASNCFAIRHFENKFAVETLICRMKPFLTVG [RMKPFLTVG] | inactive
EASNCFAIRHFENKFAVETLICGRGASCPRM [GRGASCPRM] | 2.42
EASNCFAIRHFENKFAVETLICESRKARSRL [ESRKARSRL] | 1.59

Variant | amyloid nucleation score
EASNCFAIRHFENKFAVETLICGYISTNKLS [GYISTNKLS] | inactive
EASNCFAIRHFENKFAVETLICCKTCSRAND [CKTCSRAND] | 4.19
EASNCFAIRHFENKFAVETLICRERRVHTRI [RERRVHTRI] | 0.806
EASNCFAIRHFENKFAVETLICNVYVSTMFL [NVYVSTMFL] | 8.49
EASNCFAIRHFENKFAVETLICWLSISLLFP [WLSISLLFP] | inactive
EASNCFAIRHFENKFAVETLICTVRMVCLLV [TVRMVCLLV] | inactive
EASNCFAIRHFENKFAVETLICYMCFDTVFC [YMCFDTVFC] | 8.22
EASNCFAIRHFENKFAVETLICCDRASSPGM [CDRASSPGM] | 2.61
EASNCFAIRHFENKFAVETLICQFLDSFLIQ [QFLDSFLIQ] | inactive
EASNCFAIRHFENKFAVETLICPFISMYRGV [PFISMYRGV] | 5.38
EASNCFAIRHFENKFAVETLICGRVSGGVGM [GRVSGGVGM] | inactive
EASNCFAIRHFENKFAVETLICPRFLAIIVI [PRFLAIIVI] | inactive
EASNCFAIRHFENKFAVETLICNILSGQTKC [NILSGQTKC] | inactive
EASNCFAIRHFENKFAVETLICFSLSNWDIP [FSLSNWDIP] | 5.98
EASNCFAIRHFENKFAVETLICMGSRTRADW [MGSRTRADW] | 2.48
EASNCFAIRHFENKFAVETLICWCFAHGLYR [WCFAHGLYR] | 4.02
EASNCFAIRHFENKFAVETLICWDVINRTLR [WDVINRTLR] | 3.94
EASNCFAIRHFENKFAVETLICRMCDSSDLI [RMCDSSDLI] | inactive
EASNCFAIRHFENKFAVETLICQDQFSIYCR [QDQFSIYCR] | 1.61
EASNCFAIRHFENKFAVETLICYCVSIRIGV [YCVSIRIGV] | inactive
EASNCFAIRHFENKFAVETLICVVTVGNISK [VVTVGNISK] | 5.47
EASNCFAIRHFENKFAVETLICHIFTFVVCW [HIFTFVVCW] | 0.511
EASNCFAIRHFENKFAVETLICMQPMRGRCC [MQPMRGRCC] | inactive

Variant | amyloid nucleation score
EASNCFAIRHFENKFAVETLICTGRDEDSVE [TGRDEDSVE] | inactive
EASNCFAIRHFENKFAVETLICYELKAFKHS [YELKAFKHS] | 3.32
EASNCFAIRHFENKFAVETLICYWKSCIMTA [YWKSCIMTA] | inactive
EASNCFAIRHFENKFAVETLICMKTCFYYVV [MKTCFYYVV] | -0.793
EASNCFAIRHFENKFAVETLICRCNWRTVYI [RCNWRTVYI] | -0.678
EASNCFAIRHFENKFAVETLICWVSYFLVLG [WVSYFLVLG] | inactive
EASNCFAIRHFENKFAVETLICVSDWSNCGD [VSDWSNCGD] | 5.08
EASNCFAIRHFENKFAVETLICKSVDNKSYR [KSVDNKSYR] | inactive
EASNCFAIRHFENKFAVETLICLVRSGYLMR [LVRSGYLMR] | inactive
EASNCFAIRHFENKFAVETLICMTRRSYYGV [MTRRSYYGV] | 2.26
EASNCFAIRHFENKFAVETLICESFSTVWAI [ESFSTVWAI] | inactive
EASNCFAIRHFENKFAVETLICQRHHTVLCF [QRHHTVLCF] | inactive
EASNCFAIRHFENKFAVETLICIVGFSRKIV [IVGFSRKIV] | inactive
EASNCFAIRHFENKFAVETLICDGIMFTSMV [DGIMFTSMV] | 0.357
EASNCFAIRHFENKFAVETLICTTCLFNARG [TTCLFNARG] | 8.11
EASNCFAIRHFENKFAVETLICGLVGRSARQ [GLVGRSARQ] | 3.48
EASNCFAIRHFENKFAVETLICFFCWVSSSR [FFCWVSSSR] | 3.03
EASNCFAIRHFENKFAVETLICTHVRDLEER [THVRDLEER] | inactive
EASNCFAIRHFENKFAVETLICVCILQFRSS [VCILQFRSS] | 0.528
EASNCFAIRHFENKFAVETLICPQSLICQQS [PQSLICQQS] | inactive
EASNCFAIRHFENKFAVETLICDWSLTRLVL [DWSLTRLVL] | inactive
EASNCFAIRHFENKFAVETLICTLETCVTSM [TLETCVTSM] | inactive
EASNCFAIRHFENKFAVETLICYMIRFIFLR [YMIRFIFLR] | inactive

Variant | amyloid nucleation score
EASNCFAIRHFENKFAVETLICCKYSNIVLT [CKYSNIVLT] | inactive
EASNCFAIRHFENKFAVETLICFSMHVCVKL [FSMHVCVKL] | inactive
EASNCFAIRHFENKFAVETLICNMPGIFLSY [NMPGIFLSY] | 5.21
EASNCFAIRHFENKFAVETLICLYAKDWLMR [LYAKDWLMR] | inactive
EASNCFAIRHFENKFAVETLICRRMRVGMLL [RRMRVGMLL] | inactive
EASNCFAIRHFENKFAVETLICLMMYHIVRG [LMMYHIVRG] | 0.968
EASNCFAIRHFENKFAVETLICIGMSPSPFR [IGMSPSPFR] | 1.82
EASNCFAIRHFENKFAVETLICYRDYQMFTN [YRDYQMFTN] | inactive
EASNCFAIRHFENKFAVETLICVTCSEGNGF [VTCSEGNGF] | 6.7
EASNCFAIRHFENKFAVETLICLCEGMLTNV [LCEGMLTNV] | inactive
EASNCFAIRHFENKFAVETLICFHQIVMDYI [FHQIVMDYI] | -0.00995
EASNCFAIRHFENKFAVETLICHRDSAKYDV [HRDSAKYDV] | inactive
EASNCFAIRHFENKFAVETLICRVDVVYRIR [RVDVVYRIR] | inactive
EASNCFAIRHFENKFAVETLICKRHCFTAWA [KRHCFTAWA] | inactive
EASNCFAIRHFENKFAVETLICNSKGALVFL [NSKGALVFL] | 5.15
EASNCFAIRHFENKFAVETLICYRGIEHGSH [YRGIEHGSH] | 3.73
EASNCFAIRHFENKFAVETLICYYRPDVWPT [YYRPDVWPT] | 3.51
EASNCFAIRHFENKFAVETLICVGIVSTRRQ [VGIVSTRRQ] | 3.66
EASNCFAIRHFENKFAVETLICHRSYPSYSD [HRSYPSYSD] | inactive
EASNCFAIRHFENKFAVETLICMTDFYGPMV [MTDFYGPMV] | inactive
EASNCFAIRHFENKFAVETLICFSVSLCLFN [FSVSLCLFN] | 7.96
EASNCFAIRHFENKFAVETLICGISVMFCRA [GISVMFCRA] | 7.15
EASNCFAIRHFENKFAVETLICIRFYVCGAL [IRFYVCGAL] | 4.05

Variant | amyloid nucleation score
EASNCFAIRHFENKFAVETLICTMNRKGRVV [TMNRKGRVV] | inactive
EASNCFAIRHFENKFAVETLICFAFSSVYMI [FAFSSVYMI] | 2.91
EASNCFAIRHFENKFAVETLICFVKVFSIFL [FVKVFSIFL] | inactive
EASNCFAIRHFENKFAVETLICNLYKTFDYH [NLYKTFDYH] | 5.54
EASNCFAIRHFENKFAVETLICYYKSLMKGQ [YYKSLMKGQ] | inactive
EASNCFAIRHFENKFAVETLICYQHFSCKCL [YQHFSCKCL] | 4.5
EASNCFAIRHFENKFAVETLICHTMLIFNVN [HTMLIFNVN] | inactive
EASNCFAIRHFENKFAVETLICGVKWFTCKV [GVKWFTCKV] | inactive
EASNCFAIRHFENKFAVETLICWRVRRLINR [WRVRRLINR] | inactive
EASNCFAIRHFENKFAVETLICLKTLNTLFD [LKTLNTLFD] | 1.95
EASNCFAIRHFENKFAVETLICVSCAGCSTC [VSCAGCSTC] | 8.4
EASNCFAIRHFENKFAVETLICYGSHGSVWH [YGSHGSVWH] | 7.65
EASNCFAIRHFENKFAVETLICFAVNYISGF [FAVNYISGF] | 7.6
EASNCFAIRHFENKFAVETLICRYDSGTKKE [RYDSGTKKE] | -0.0392
EASNCFAIRHFENKFAVETLICFCSVKGCCG [FCSVKGCCG] | inactive
EASNCFAIRHFENKFAVETLICRRLAVSNMG [RRLAVSNMG] | inactive
EASNCFAIRHFENKFAVETLICVWFRTWNYH [VWFRTWNYH] | inactive
EASNCFAIRHFENKFAVETLICFAEYVDRPT [FAEYVDRPT] | inactive
EASNCFAIRHFENKFAVETLICRYRISQYEL [RYRISQYEL] | inactive
EASNCFAIRHFENKFAVETLICLAWFTGVKS [LAWFTGVKS] | inactive

Same assay, conditions: random library (experiment): 3

Variant | amyloid nucleation score
EASNCFAIRHFENKFAVETLICHIHCRADDV [HIHCRADDV] | 8.05
EASNCFAIRHFENKFAVETLICAREMYNRIV [AREMYNRIV] | inactive
EASNCFAIRHFENKFAVETLICMRRHQYVDK [MRRHQYVDK] | inactive
EASNCFAIRHFENKFAVETLICTCKTNFFSR [TCKTNFFSR] | 4.66
EASNCFAIRHFENKFAVETLICVWSKEAGRS [VWSKEAGRS] | 3.03
EASNCFAIRHFENKFAVETLICHMRGWVCGV [HMRGWVCGV] | inactive
EASNCFAIRHFENKFAVETLICKQLVHFGCC [KQLVHFGCC] | 5.17
EASNCFAIRHFENKFAVETLICPGGEECLIW [PGGEECLIW] | inactive
EASNCFAIRHFENKFAVETLICCTAGGSRNG [CTAGGSRNG] | 5.83
EASNCFAIRHFENKFAVETLICQGSFVAWPG [QGSFVAWPG] | 7
EASNCFAIRHFENKFAVETLICTRVCRSVHR [TRVCRSVHR] | inactive
EASNCFAIRHFENKFAVETLICQTRGAYCGM [QTRGAYCGM] | 4.78
EASNCFAIRHFENKFAVETLICPVNLIYLWA [PVNLIYLWA] | 5.59
EASNCFAIRHFENKFAVETLICCRKCKRDNA [CRKCKRDNA] | 2.57
EASNCFAIRHFENKFAVETLICYLAHGWRYV [YLAHGWRYV] | inactive
EASNCFAIRHFENKFAVETLICVVSLTVSTV [VVSLTVSTV] | inactive
EASNCFAIRHFENKFAVETLICCECDVKGFW [CECDVKGFW] | 8.06
EASNCFAIRHFENKFAVETLICIVYPMSTSM [IVYPMSTSM] | 6.94
EASNCFAIRHFENKFAVETLICVKVVVGYCP [VKVVVGYCP] | inactive
EASNCFAIRHFENKFAVETLICMLSRKGTRE [MLSRKGTRE] | inactive
EASNCFAIRHFENKFAVETLICLLEESCKVC [LLEESCKVC] | 4.69
EASNCFAIRHFENKFAVETLICFIAAHDLVS [FIAAHDLVS] | 4.71
EASNCFAIRHFENKFAVETLICVYELVVDKL [VYELVVDKL] | 2.82
EASNCFAIRHFENKFAVETLICRHKDCLDVR [RHKDCLDVR] | inactive
EASNCFAIRHFENKFAVETLICLDIGMDKVS [LDIGMDKVS] | -0.294
EASNCFAIRHFENKFAVETLICFGDVLRPGN [FGDVLRPGN] | 6.42
EASNCFAIRHFENKFAVETLICGFLWYCLWK [GFLWYCLWK] | inactive
EASNCFAIRHFENKFAVETLICYVFSCCLFL [YVFSCCLFL] | 7.17
EASNCFAIRHFENKFAVETLICYFGFDIDRV [YFGFDIDRV] | 5.47
